The test system of this assay is Plasmodium falciparum. In words: Primary screen in NF54 nanoGlo assay, in single point, at 2uM, 72h; a lower Z score goes with more inhibition. It is filed as functional, Erythrocyte. To be noted: timepoint 72 hour.

Consider 42 compounds from ChEMBL document CHEMBL4888484, “Replenishing the malaria drug discovery pipeline: Screening and hit evaluation of the MMV Hit Generation Library 1 (HGL1) against asexual blood stage Plasmodium falciparum ,using a nano luciferase reporter read-out” (2022).

Structures are written as SMILES. In all, about 150,000 compounds went through this assay and about 540 (0.36%) showed an effect of 50% or more. The list shows a part of the results.

The term % Inhibition denotes the change of the read-out against control, counted positive when it falls. As to `Cn1cc([C@@H]2C[C@H]2C(=O)Nc2ccccc2NCC(F)(F)F)cn1`, the “% Inhibition” value is listed as -3% and the Z score amounted to 0.55.
The matching figures for `CCOC(=O)CC[C@H](NC(=O)c1ccc(NC)cc1)C(=O)OCC`: 29% and -3.7.
For `COc1ccc2c(c1)CCc1cnc(-n3ncc(C(=O)O)c3C)nc1-2`, the “% Inhibition” value is on record as -5% and the Z score was determined as 0.9.
Consider `Cc1ccc([C@H]2Nc3ccccc3C(=O)N2c2ccc3c(c2)OCO3)o1`, for which the “% Inhibition” value is recorded as -11% and the Z score is listed as 1.13.
On the same counts, the results for `CC(=O)c1cccc(NC(=O)N(C)C[C@H](O)CN2CCN(C)CC2)c1` are 15% and -2.06.
Take `Cc1nn(C(F)F)c(C)c1S(=O)(=O)N1CCC(Cc2ccccc2)CC1`: the “% Inhibition” value stood at 11% and the Z score is listed as -1.37.
The matching figures for `Cc1ccc2nc(C[C@H]3CN(C(C)C)CC[C@H]3CC(=O)O)[nH]c2c1`: -6% and 0.74.
The matching figures for `Cc1noc(C)c1C(=O)Nc1ccnn1Cc1ccc(Cl)c(F)c1`: -4% and 0.74.
Regarding `Cn1cc(Cc2nc(C3CCCC4CC43)no2)cn1` (centres undefined), the “% Inhibition” value is recorded as -5% and the Z score was determined as 0.92.
Consider `CC(C)Cn1nccc1C(=O)N1CC[C@@H]2CC[C@@]21c1cccnc1`, for which the “% Inhibition” value came to 9% and the Z score is -1.09.
The matching figures for `O=C(CCc1ccco1)Nc1ccc(NC(=O)c2ccco2)cc1`: -7% and 1.12.
On the same counts, the results for `CCCc1noc(CCC(=O)N[C@@H](C)c2ccc(F)cc2)n1` are -6% and 0.83.
On the same counts, the results for `CC1OC(C)C(C(=O)N2CC3CC2(C(N)=O)C3)C1C` (centres undefined) are -12% and 1.75.
Regarding `CN(Cc1nnc(C2CC2)o1)OCc1ccccc1`, the “% Inhibition” value was -5% and the Z score turned out to be 0.47.
The matching figures for `COc1ccc(CNC(=O)N2CC[S+]([O-])CC2)cc1OC`: -8% and 1.35.
Take `Cc1nscc1C(=O)NC[C@H](C)Nc1ccccc1`: the “% Inhibition” value is recorded as -9% and the Z score worked out at 1.42.
Regarding `COc1ccc(CCNC(=O)C2CCN(c3ccc(-c4ccccc4)nn3)CC2)cc1OC`, the “% Inhibition” value is listed as -13% and the Z score is recorded as 1.91.
Turning to `CCc1nnsc1C(=O)Oc1ccc(N2CCCC2=O)cc1`, the “% Inhibition” value is recorded as -1% and the Z score was determined as 0.25.
Consider `CNC(C)(C)c1cn(Cc2coc(C(C)(C)C)n2)nn1`, for which the “% Inhibition” value is reported as 1% and the Z score was -0.13.
The matching figures for `CCS(=O)(=O)N(CCN1CCCCC1)C1CN(C(=O)c2ccc(Cn3ccnc3)o2)C1`: -13% and 1.77.
For `CCN1C(=O)COc2ccc(NC(=O)c3ccc(OCc4nonc4C)cc3)cc21`, the “% Inhibition” value was determined as 1% and the Z score is given as -0.08.
For the compound `CCn1c(C)cc(C(=O)N2CCC[C@H]2c2ccncc2)c1C`, the “% Inhibition” value is recorded as -7% and the Z score stood at 0.97.
On the same counts, the results for `COc1c(CNc2ccc(C(=O)N3CCCCC3)nc2)c(C)nn1C` are -9% and 0.96.
On the same counts, the results for `COc1cc(-c2nn(CN(C)CC(=O)Nc3ccc(Cl)cc3)c(=S)o2)cc(OC)c1OC` are -4% and 0.58.
The matching figures for `Cn1cc(C(=O)Cn2nnc3c(cnn3-c3ccccc3)c2=O)cn1`: 1% and -0.13.
As to `CCOC(=O)C(C)(c1c[nH]c2ccccc12)c1c[nH]c2ccccc12`, the “% Inhibition” value came out at 0% and the Z score is on record as -0.04.
As for `CC(C)NC(=O)CN1CCOc2ccc(Br)cc2C1`, the “% Inhibition” value was -4% and the Z score amounted to 0.68.
The matching figures for `O=C1CC(c2ccccn2)=NN1C12CC(C1)C2`: -12% and 1.18.
On the same counts, the results for `Cc1ccc(F)c(CC(=O)N2CCCS(=O)(=O)C[C@H]2c2cnn(C)c2)c1` are -5% and 0.67.
With `O=C(C[C@@]1(O)C(=O)N(Cc2ccc3c(c2)OCO3)c2ccccc21)c1ccccc1O`, the “% Inhibition” value came out at 4% and the Z score was -0.66.
The matching figures for `COC(=O)c1cc(N[C@H]2CC(=O)N(c3ccccc3)C2)ncn1`: -3% and 0.31.
The matching figures for `Cc1cccc(C)c1NC(=O)[C@H]1CCCN(c2nc3c(s2)c(C)nn3-c2ccccc2)C1`: 8% and -1.04.
Turning to `C[C@@H](c1ccon1)N(C)C(=O)c1ccc(OC2CCN(S(=O)(=O)N(C)C)CC2)cc1`, the “% Inhibition” value is given as -4% and the Z score is given as 0.67.
On the same counts, the results for `CCc1nc2ccccc2c(NC(=O)CN2CCCC2)c1C` are -8% and 1.13.
Turning to `Cc1cc(C(=O)Nc2nnnn2C2CC2)ccn1`, the “% Inhibition” value is given as -5% and the Z score was 0.57.
`COC[C@H]1CCCN(C(=O)c2coc(COc3ccccc3)n2)C1`: the “% Inhibition” value is -5% and the Z score worked out at 0.95.
On the same counts, the results for `CC(C)N1CCC(C(=O)N2CCC3(CC2)c2ccccc2C[C@@H]3O)CC1` are -8% and 1.03.
For `COc1cc(-c2nc3ccc(C(=O)NCc4ccc5c(c4)OCO5)cc3nc2-c2cc(OC)c(OC)c(OC)c2)cc(OC)c1OC`, the “% Inhibition” value is 12% and the Z score is -1.54.
The matching figures for `CCOc1ccc(CN2CCC3(CCNC(=O)CC3)CC2)cn1`: 2% and -0.33.
In the case of `CCOC1CC(CO)(NC(=O)CN(C)C)C1(C)C` (centres undefined), the “% Inhibition” value is 9% and the Z score is given as -0.92.
With `O=S(=O)(N1CCCCCC1)N1CCN2CCCC[C@H]2C1`, the “% Inhibition” value is on record as -12% and the Z score is given as 1.67.
On the same counts, the results for `COc1ccc(NC(=O)c2ccc(N[C@@H](C)C(=O)N3CCCCC3)cc2)cc1` are -14% and 1.58.
